First the molecules themselves.
B1: PhoQ; a variant is named by its letters at X, in order, P23837 (parent)
chain: MKKLLRLFFPLSLRVRFLLATAAVVLVLSLAYGMVALIGYSVSFDKTTFRLLRGESNLFYTLAKWENNKLHVELPENIDKQSPTMTLIYDENGQLLWAQRDVPWLMKMIQPDWLKSNGFHEIEADVNDTSLLLSGDHSIQQQLQEVREDDDDAEMTHSVAVNVYPATSRMPKLTIVVVDTIPVELKSSYMVWSWFIYVLSANLLLVIPLLWVAAWWSLRPIEALAKEVRELEEHNRELLNPATTRELTSLVRNLNRLLKSERERYDKYRTTLTDLTHSLKTPLXXLQXXLRSLRSEKMSVSDAEPVMLEQISRISQQIGYYLHRASMRGGTLLSRELHPVAPLLDNLTSALNKVYQRKGVNISLDISPEISFVGEQNDFVEVMGNVLDNACKYCLEFVEISARQTDEHLYIVVEDDGPGIPLSKREVIFDRGQRVDTLRPGQGVGLAVAREITEQYEGKIVAGESMLGGARMEVIFGRQHSAPKDE

From a collection of fitness landscapes (doi:10.1126/science.1257360) come the findings set out here.

The list shows a part of the results. Bounds are passed on as bounds.

The variants in the assay derive from B1. Briefly: enrichment ratio after two sorts for PhoP signalling (ratio (wild type AVST 3.29)); higher = more functional. Particulars: with PhoP (E. coli).
Take DPHI: the enrichment ratio is not above 0.25.
As for PDGQ, the figure is not above 0.25.
As for QPHM, the figure is not above 0.25; as for NDVV, not above 0.25; as for VKPM, not above 0.25.
The figure for LSAE is not above 0.25; for YRKW it is not above 0.25.
With TRIC, the enrichment ratio was not above 0.25.
As for DEWV, the figure is not above 0.25; as for GCGA, not above 0.25; as for IMGE, not above 0.25.
The figure for MIWI is 3.74.
The figure for CNWS is not above 0.25; for ERAS it is not above 0.25; for IIHY it is not above 0.25.
With PCTG, the enrichment ratio is not above 0.25.
As for TGSM, the figure is 23.5.
As for GSYD, the figure is not above 0.25; as for LYRK, not above 0.25; as for PFDG, not above 0.25.
Take LPVM: the enrichment ratio is not above 0.25.
In the case of IQIT, the enrichment ratio was not above 0.25.
The figure for HYGY is not above 0.25; for LQMA it is not above 0.25.
As for PFEA, the figure is not above 0.25; as for SMPT, not above 0.25.
On to GTHG, for which the enrichment ratio was not above 0.25.
The figure for NKWL is not above 0.25.
As for KVYH, the figure is not above 0.25; as for GCFS, not above 0.25; as for SHPQ, not above 0.25.
As for VAPR, the figure is not above 0.25; as for DDFM, not above 0.25; as for HTHN, not above 0.25.
DLWK: the enrichment ratio was not above 0.25.
ISMM: the enrichment ratio amounted to 5.78.
For the variant QSFW, the enrichment ratio was not above 0.25.
The figure for QVYG is 0.25; for AALH it is 7.76.
As for VERL, the figure is not above 0.25; as for QVNK, not above 0.25.
The figure for MEVM is 12.9; for WMNP it is not above 0.25; for ADWF it is not above 0.25.
As for DIWS, the enrichment ratio was not above 0.25.
As for QQDY, the figure is not above 0.25.
As to THRT, the enrichment ratio was not above 0.25.
As for AVTQ, the figure is 4.9; as for LNPQ, not above 0.25; as for KSRA, not above 0.25.
As for VDPH, the figure is not above 0.25; as for INEI, not above 0.25.
The figure for QQVP is not above 0.25; for MSRK it is not above 0.25; for KHVE it is not above 0.25.
Take FENL: the enrichment ratio was not above 0.25.
As for WGDR, the figure is not above 0.25; as for MSHV, 17.4.
The figure for RNCG is not above 0.25; for VIIA it is not above 0.25; for LKDI it is not above 0.25.
As for KSIQ, the figure is not above 0.25; as for EIDI, not above 0.25; as for LMCH, not above 0.25.
For TANC, the enrichment ratio stood at 12.1.
Regarding KASY, the enrichment ratio was not above 0.25.
The figure for KMAC is not above 0.25.
As for RDLP, the figure is not above 0.25.
For KQNF, the enrichment ratio is not above 0.25.
As for NNHM, the figure is not above 0.25.
As for RGRL, the figure is not above 0.25; as for TFSR, not above 0.25; as for DIPL, not above 0.25.
The figure for HPIW is not above 0.25; for LEGL it is not above 0.25; for ICGF it is not above 0.25.
For the variant LLMQ, the enrichment ratio is not above 0.25.
As for LSLC, the figure is 0.277; as for MQVS, not above 0.25; as for AAPK, not above 0.25.
As for DTPP, the figure is not above 0.25.
Take WKKA: the enrichment ratio was not above 0.25.
As for MVGL, the figure is 3.39; as for FGSR, not above 0.25.
